Results are given in words; binding and its absence hold for the method and conditions named.
Experiments:
Assay in all cases: SPR; SPR imaging (SPRi, Biacore Flexchip): partners spotted in triplicate on a bare gold chip at 0.06 to 1 mg/ml; purified LOX-PP injected at 2 µM and recirculated for 20 min; PBS with 0.05% Tween 20, 25 °C; both purified
Thrombospondin-1 (TSP-1) = Thrombospondin-1 (TSP-1) (UniProt P07996)
[1] = molecular target: Fibroblast growth factor-2 (UniProt P09038)
[2] = molecular target: Endostatin, mutant Arg1598Ala, Arg1710Ala (UniProt P39060)
Enolase = Enolase (UniProt P00924)
[3] = molecular target: Discoidin domain-containing receptor 1 ectodomain (DDR1) (UniProt Q08345)
[4] = molecular target: Epidermal growth factor receptor (EGFR) (UniProt P00533)
Hyaluronidase-1 = molecular target: T1, Hyaluronidase-1 (UniProt Q12794)
T1 sequence: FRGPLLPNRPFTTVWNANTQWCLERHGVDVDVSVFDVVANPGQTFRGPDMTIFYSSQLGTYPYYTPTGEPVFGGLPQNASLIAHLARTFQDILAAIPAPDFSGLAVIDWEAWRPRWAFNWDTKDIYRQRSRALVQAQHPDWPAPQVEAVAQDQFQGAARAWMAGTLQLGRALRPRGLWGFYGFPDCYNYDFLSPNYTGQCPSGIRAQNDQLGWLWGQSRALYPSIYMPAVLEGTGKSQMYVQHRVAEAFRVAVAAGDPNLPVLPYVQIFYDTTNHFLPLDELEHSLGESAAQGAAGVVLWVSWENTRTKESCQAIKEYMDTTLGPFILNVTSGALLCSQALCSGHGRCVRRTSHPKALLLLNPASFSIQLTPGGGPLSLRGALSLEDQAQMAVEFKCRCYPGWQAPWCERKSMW

Amino acid sequences for entries named in this document (tags omitted). A change or cut given only in a name is not applied to a line headed by its entry. Chains listed by the source or under a name are the forms on record and can include a tag or linker. Residues count along the entry.
UniProt P07996, residues 19-1170: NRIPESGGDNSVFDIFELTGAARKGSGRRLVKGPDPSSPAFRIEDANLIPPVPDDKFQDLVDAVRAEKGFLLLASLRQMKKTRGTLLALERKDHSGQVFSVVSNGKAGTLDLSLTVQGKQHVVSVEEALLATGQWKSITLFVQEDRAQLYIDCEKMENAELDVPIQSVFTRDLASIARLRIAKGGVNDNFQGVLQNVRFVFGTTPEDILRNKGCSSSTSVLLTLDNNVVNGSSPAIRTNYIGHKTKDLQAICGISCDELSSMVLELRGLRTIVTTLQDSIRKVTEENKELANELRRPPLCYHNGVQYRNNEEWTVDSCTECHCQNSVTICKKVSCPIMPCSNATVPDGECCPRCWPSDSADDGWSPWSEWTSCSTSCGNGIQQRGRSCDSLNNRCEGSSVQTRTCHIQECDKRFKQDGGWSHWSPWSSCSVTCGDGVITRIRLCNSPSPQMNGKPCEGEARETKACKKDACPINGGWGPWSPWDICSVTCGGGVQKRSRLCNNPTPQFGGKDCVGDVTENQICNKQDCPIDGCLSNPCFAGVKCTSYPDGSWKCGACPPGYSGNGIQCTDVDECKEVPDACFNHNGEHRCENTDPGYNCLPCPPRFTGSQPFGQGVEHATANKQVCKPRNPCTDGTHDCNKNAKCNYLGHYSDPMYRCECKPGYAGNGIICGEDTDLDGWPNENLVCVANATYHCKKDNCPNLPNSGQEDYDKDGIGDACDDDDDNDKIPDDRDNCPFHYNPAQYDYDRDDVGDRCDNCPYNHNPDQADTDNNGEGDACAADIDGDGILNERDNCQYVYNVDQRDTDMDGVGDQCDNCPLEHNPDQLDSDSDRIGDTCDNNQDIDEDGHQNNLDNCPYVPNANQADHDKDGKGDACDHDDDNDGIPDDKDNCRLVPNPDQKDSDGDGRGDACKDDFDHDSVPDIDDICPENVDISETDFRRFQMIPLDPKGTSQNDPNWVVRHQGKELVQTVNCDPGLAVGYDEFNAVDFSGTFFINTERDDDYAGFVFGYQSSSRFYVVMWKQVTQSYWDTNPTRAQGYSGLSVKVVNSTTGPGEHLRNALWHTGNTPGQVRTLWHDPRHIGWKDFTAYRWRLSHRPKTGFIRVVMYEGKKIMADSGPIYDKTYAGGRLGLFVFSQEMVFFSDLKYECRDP
UniProt P09038, residues 143-288: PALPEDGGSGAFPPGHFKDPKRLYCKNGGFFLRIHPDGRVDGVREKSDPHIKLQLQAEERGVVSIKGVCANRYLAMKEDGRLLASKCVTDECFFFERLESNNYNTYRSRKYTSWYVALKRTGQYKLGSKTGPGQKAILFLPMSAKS
Endostatin, mutant Arg1598Ala, Arg1710Ala (P39060, form named): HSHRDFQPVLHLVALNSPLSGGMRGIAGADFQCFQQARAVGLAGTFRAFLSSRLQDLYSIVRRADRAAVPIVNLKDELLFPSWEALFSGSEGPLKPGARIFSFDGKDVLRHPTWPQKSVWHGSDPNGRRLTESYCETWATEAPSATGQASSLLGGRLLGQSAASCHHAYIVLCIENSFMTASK
UniProt P00924: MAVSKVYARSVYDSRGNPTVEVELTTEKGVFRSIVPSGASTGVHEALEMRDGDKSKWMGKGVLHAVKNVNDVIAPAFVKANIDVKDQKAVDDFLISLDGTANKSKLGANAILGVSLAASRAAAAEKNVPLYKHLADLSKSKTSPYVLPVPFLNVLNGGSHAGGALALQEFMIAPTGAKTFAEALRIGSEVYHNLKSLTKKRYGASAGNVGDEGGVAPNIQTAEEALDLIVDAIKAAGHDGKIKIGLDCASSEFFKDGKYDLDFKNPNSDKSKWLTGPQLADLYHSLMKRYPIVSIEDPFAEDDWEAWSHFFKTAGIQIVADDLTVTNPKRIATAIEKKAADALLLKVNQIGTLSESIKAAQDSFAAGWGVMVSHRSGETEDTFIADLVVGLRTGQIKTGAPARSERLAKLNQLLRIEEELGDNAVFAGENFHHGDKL
UniProt Q08345, residues 21-416: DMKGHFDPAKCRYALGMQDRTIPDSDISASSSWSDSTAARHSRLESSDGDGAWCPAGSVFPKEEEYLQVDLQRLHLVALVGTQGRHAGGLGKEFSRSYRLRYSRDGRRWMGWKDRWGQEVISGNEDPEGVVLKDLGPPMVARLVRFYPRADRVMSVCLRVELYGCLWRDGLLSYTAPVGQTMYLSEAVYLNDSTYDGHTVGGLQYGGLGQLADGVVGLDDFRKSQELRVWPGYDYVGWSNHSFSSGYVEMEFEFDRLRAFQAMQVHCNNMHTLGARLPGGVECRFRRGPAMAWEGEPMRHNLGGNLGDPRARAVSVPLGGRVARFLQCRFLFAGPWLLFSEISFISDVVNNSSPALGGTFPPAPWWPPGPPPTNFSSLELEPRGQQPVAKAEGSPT
UniProt P51884, residues 19-338: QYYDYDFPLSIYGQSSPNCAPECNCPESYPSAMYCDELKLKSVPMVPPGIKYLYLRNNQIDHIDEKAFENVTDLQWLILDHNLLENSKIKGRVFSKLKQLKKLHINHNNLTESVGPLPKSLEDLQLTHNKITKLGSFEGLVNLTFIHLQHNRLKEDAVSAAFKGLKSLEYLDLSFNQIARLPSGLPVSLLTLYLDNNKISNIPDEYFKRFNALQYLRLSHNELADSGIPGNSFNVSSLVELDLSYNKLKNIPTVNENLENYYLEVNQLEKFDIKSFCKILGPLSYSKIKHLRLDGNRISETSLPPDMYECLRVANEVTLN
UniProt P10451, residues 17-314: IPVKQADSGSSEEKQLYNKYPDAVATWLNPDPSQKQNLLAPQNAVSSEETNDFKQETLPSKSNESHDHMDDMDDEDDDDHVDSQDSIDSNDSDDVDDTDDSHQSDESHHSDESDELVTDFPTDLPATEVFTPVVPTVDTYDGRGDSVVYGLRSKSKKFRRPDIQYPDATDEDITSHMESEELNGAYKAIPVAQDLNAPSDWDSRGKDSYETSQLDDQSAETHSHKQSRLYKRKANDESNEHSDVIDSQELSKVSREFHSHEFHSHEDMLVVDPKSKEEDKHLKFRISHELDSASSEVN
UniProt P19137: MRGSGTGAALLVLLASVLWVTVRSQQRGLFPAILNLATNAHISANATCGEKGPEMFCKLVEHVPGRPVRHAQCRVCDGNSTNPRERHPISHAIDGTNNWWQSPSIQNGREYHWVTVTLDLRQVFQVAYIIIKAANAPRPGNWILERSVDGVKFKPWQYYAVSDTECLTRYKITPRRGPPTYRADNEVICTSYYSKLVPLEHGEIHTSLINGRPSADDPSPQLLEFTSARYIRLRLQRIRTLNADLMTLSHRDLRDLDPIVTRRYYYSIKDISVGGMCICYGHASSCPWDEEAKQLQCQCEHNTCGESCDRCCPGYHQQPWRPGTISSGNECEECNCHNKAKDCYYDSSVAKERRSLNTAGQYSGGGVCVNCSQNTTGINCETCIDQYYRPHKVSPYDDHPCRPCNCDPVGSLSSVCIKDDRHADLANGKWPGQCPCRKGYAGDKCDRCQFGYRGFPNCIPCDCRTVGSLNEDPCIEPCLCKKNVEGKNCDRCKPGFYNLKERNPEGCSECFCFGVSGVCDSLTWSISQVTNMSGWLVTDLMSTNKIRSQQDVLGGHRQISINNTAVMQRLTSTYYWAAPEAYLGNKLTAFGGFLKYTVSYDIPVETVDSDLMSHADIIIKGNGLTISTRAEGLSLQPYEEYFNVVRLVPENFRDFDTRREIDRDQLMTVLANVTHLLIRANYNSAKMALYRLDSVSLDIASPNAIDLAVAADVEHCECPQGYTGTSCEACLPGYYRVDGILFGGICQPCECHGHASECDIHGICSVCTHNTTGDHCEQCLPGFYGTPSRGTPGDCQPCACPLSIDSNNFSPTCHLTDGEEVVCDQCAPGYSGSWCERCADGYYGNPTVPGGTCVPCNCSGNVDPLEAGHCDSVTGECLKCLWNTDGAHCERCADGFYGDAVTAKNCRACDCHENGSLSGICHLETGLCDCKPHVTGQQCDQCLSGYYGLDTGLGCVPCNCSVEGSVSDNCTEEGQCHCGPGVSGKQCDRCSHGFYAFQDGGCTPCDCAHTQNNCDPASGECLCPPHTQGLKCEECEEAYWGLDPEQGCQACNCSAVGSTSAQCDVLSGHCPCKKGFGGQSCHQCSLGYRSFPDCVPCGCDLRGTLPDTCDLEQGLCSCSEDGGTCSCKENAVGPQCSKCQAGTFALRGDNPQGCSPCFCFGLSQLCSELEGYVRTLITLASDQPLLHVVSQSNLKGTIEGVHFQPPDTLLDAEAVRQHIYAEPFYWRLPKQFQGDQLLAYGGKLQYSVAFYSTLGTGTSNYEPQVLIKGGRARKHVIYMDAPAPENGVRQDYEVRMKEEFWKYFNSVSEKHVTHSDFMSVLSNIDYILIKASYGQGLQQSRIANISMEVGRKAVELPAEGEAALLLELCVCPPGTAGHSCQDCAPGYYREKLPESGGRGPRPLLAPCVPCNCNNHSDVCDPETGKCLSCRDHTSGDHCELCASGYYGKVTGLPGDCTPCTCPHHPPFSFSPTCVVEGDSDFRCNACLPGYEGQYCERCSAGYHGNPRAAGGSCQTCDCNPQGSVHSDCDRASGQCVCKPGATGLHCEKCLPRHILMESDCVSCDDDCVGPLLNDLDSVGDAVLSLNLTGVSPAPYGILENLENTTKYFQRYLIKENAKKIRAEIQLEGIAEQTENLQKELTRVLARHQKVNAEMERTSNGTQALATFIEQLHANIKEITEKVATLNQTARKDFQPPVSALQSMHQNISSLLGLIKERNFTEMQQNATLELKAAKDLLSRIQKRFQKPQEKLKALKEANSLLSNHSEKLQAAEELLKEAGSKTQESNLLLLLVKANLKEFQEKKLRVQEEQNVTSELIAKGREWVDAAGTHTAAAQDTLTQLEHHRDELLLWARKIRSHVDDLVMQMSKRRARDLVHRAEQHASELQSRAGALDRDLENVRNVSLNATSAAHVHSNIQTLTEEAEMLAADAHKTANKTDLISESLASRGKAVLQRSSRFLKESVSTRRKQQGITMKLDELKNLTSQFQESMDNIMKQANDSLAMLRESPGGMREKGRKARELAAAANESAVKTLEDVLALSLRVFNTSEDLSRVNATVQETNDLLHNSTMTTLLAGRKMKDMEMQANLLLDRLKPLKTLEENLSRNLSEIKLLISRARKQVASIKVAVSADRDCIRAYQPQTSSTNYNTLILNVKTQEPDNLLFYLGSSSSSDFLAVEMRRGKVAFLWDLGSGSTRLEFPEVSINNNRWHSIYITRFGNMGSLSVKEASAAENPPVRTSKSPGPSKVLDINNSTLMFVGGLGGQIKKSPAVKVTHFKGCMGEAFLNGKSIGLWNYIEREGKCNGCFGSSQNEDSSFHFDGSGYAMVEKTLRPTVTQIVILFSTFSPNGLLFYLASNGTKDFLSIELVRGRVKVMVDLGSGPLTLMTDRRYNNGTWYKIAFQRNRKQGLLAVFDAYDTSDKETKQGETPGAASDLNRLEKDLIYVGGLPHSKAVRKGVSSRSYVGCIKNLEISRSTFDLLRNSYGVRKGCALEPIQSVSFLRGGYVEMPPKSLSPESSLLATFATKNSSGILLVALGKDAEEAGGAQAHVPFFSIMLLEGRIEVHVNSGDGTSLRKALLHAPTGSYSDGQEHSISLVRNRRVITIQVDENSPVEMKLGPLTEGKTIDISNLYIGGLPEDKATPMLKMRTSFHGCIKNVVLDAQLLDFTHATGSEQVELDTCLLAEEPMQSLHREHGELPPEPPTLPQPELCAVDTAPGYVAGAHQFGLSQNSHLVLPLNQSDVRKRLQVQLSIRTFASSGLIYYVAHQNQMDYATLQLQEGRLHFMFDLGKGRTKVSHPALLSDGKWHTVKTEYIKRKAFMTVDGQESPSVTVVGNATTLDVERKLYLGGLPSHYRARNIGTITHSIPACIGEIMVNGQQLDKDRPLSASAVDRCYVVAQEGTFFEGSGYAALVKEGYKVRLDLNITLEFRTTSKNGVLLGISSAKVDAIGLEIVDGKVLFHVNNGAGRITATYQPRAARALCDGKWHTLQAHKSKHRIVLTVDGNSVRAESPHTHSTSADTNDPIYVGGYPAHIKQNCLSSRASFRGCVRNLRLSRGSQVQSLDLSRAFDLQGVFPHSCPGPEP
Lysyl oxidase propeptide (LOX-PP) (Pro24Leu) (P28300, form named): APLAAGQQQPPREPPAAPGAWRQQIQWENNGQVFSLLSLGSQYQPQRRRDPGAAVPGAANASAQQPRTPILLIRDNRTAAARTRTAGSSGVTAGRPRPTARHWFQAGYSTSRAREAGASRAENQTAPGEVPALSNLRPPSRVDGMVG

Lumican = Lumican (UniProt P51884)
[5] = molecular target: Osteopontin (with bovine serum albumin) (UniProt P10451)
Osteoprotegerin = molecular target: T2, Osteoprotegerin (UniProt O00300)
T2 sequence: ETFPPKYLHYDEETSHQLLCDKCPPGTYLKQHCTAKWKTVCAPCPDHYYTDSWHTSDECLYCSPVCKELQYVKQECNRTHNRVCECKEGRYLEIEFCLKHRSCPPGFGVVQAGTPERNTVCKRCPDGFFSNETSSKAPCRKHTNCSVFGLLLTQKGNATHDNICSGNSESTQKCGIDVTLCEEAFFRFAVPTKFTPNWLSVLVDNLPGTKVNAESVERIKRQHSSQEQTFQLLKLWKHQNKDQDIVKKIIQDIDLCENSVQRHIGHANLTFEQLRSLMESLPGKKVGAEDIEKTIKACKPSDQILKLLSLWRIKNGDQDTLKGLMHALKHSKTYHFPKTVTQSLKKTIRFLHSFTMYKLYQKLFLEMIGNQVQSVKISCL

Laminin-111 = Laminin-111 (UniProt P19137)
Syndecan-4 ectodomain = molecular target: T3, Syndecan-4 ectodomain (UniProt P31431)
T3 sequence: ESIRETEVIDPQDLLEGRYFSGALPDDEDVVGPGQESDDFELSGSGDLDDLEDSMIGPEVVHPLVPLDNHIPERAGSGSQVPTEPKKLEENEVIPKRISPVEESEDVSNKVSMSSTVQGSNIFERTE

- binding (Thrombospondin-1 (TSP-1)): no binding (tested: 2 µM)
- binding [1]: no binding (tested: 2 µM)
- binding [2]: no binding (tested: 2 µM)
- binding (Enolase): no binding (tested: 2 µM)
- binding [3]: no binding (tested: 2 µM)
- binding [4]: no binding (tested: 2 µM)
- binding (Hyaluronidase-1): no binding (tested: 2 µM)
- binding (Lumican): no binding (tested: 2 µM)
- binding [5]: no binding (tested: 2 µM)
- binding (Osteoprotegerin): no binding (tested: 2 µM)
- binding (Laminin-111): no binding (tested: 2 µM)
- binding (Syndecan-4 ectodomain): no binding (tested: 2 µM)
Substance: Lysyl oxidase propeptide (LOX-PP) (Pro24Leu) (from UniProt P28300 22-168) (domain or fragment)
